Test results as given in paper PMC10601815, “αβ,α′β′-Diepoxyketones are mechanism-based inhibitors of nucleophilic cysteine enzymes” (Chemical Communications (Cambridge, England), 2023).

Target: SARS-CoV-2 Mpro (Severe acute respiratory syndrome coronavirus 2, UniProt P0DTD1)
Assay: SARS-CoV-2 Mpro inhibition assay (37mer peptide substrate, SPE-MS)
Type: biochemical
Parameters: the main protease from SARS-CoV-2 (M^pro); made in house
Conditions: 15 min pre-incubation, 150 nM Mpro, 2 µM 37mer peptide

COc1ccccc1C1OC1C(=O)C1OC1c1ccccc1OC (mixture of isomers) [DEK 5] was tested, and the “pIC50 Mpro” value was < 4.4.

With Cc1cccc(C)c1C1OC1C(=O)C1OC1c1c(C)cccc1C (mixture of isomers) [DEK 8] the “pIC50 Mpro” value was < 4.4.

O=C(c1ccccc1)C1OC1c1ccccc1 (racemic) [Epoxide 12, reference compound] was tested, and the “pIC50 Mpro” value was < 4.4.

For Cc1cc(C)cc([C@@H]2O[C@H]2C(=O)[C@@H]2O[C@H]2c2cc(C)cc(C)c2)c1 (relative stereo) [DEK 7], the “pIC50 Mpro” value was < 4.4.

In the case of O=C([C@H]1O[C@@H]1c1ccccc1)[C@@H]1O[C@H]1c1ccccc1 [DEK 1], the IC50 is reported as 25.1 µM.

For O=C(C1OC1c1ccc(OC(F)(F)F)cc1)C1OC1c1ccc(OC(F)(F)F)cc1 (stereo not shown) [DEK 4], the “pIC50 Mpro” value was < 4.4.

In the case of O=C(C1OC1c1ccccc1OC(F)(F)F)C1OC1c1ccccc1OC(F)(F)F (stereo not shown) [DEK 6], the “pIC50 Mpro” value is reported as < 4.4.

In the case of O=C1C2(CCC13OC3c1ccccc1)OC2c1ccccc1 (stereo not shown) [DEK 9], the “pIC50 Mpro” value is reported as 5.9 ± 0.2.

O=C1C2(CCCC13OC3c1ccccc1)OC2c1ccccc1 (stereo not shown) [DEK 10] was tested, and the “pIC50 Mpro” value was < 4.4.

With O=C1C2(CCCCC13OC3c1ccccc1)OC2c1ccccc1 (stereo not shown) [DEK 11] the “pIC50 Mpro” value was < 4.4.
